This passage reports binding results from publication PMC8719716.

The chains behind the UniProt entries cited, without tags or fusion partners.
UniProt P70032: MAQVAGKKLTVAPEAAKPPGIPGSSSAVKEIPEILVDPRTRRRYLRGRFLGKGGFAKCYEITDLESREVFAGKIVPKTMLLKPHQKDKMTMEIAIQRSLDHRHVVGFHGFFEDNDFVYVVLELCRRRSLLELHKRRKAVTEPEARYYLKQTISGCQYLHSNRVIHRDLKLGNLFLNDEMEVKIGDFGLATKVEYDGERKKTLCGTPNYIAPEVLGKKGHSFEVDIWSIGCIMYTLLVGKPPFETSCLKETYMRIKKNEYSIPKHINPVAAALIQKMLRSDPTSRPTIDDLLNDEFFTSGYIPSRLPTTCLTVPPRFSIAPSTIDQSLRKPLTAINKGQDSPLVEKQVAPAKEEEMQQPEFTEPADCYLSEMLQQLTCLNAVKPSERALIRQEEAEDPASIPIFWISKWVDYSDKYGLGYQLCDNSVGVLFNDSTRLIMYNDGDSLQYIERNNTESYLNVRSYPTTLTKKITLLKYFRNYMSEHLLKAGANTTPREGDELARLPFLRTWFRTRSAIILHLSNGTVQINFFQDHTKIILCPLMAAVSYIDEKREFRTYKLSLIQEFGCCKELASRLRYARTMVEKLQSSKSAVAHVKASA

Where a chain is given by its changes, count along the chain named. No constants are given. Whether binding was seen depends on the method and setting. In cells and extracts the contact can be indirect. Some binding calls cover weakened binding; strength is not graded here. For some assays here: Tags and fused reporters may be left off the sequences shown.

Experiment in all cases: co-IP; Xenopus embryos injected with mRNAs at the one-cell stage, harvested at stages 11–12, lysed in TNSG buffer (50 mM Tris-HCl pH 7.4, 150 mM NaCl, 1% NP-40, 10% glycerol) with protease and phosphatase inhibitors; anti-V5, anti-Flag M2 or anti-HA agarose, 6–8 h at 4°C; reciprocal
The target of assay [1] is T1, X. laevis CEP97 WT, exogenous, tag not named for the experiment (X. laevis) (UniProt Q6GPJ8).
T1 sequence: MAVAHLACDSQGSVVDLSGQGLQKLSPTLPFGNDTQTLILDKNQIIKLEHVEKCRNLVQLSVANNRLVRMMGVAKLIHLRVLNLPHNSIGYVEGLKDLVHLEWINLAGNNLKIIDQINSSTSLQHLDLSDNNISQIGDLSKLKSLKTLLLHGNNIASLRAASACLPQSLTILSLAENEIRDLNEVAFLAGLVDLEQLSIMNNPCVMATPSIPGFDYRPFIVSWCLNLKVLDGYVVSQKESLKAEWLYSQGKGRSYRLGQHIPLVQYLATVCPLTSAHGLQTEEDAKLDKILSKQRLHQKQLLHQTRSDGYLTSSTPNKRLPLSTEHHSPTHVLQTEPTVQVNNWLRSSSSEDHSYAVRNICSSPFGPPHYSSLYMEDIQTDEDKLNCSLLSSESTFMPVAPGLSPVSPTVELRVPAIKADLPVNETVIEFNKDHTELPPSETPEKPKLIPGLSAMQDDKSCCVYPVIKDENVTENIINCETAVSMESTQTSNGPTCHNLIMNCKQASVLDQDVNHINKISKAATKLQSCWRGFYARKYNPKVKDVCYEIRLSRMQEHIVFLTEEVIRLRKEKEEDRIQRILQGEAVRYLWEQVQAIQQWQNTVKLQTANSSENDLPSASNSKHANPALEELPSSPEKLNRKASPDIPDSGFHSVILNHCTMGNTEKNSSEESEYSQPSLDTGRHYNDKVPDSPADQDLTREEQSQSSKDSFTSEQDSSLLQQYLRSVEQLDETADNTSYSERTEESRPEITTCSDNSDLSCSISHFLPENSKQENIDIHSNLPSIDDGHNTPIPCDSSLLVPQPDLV

The target of assay [2] is T2, X. laevis CEP97 phosphomimetic mutant (SD; S634D, S643D, S649D, and S653D) (X. laevis) (UniProt Q6GPJ8).
T2 sequence: T1 sequence with S634D, S643D, S649D, S653D

Assay [3] deals with T3, X. laevis CEP97 Δ541–565 (X. laevis) (UniProt Q6GPJ8).
T3 sequence: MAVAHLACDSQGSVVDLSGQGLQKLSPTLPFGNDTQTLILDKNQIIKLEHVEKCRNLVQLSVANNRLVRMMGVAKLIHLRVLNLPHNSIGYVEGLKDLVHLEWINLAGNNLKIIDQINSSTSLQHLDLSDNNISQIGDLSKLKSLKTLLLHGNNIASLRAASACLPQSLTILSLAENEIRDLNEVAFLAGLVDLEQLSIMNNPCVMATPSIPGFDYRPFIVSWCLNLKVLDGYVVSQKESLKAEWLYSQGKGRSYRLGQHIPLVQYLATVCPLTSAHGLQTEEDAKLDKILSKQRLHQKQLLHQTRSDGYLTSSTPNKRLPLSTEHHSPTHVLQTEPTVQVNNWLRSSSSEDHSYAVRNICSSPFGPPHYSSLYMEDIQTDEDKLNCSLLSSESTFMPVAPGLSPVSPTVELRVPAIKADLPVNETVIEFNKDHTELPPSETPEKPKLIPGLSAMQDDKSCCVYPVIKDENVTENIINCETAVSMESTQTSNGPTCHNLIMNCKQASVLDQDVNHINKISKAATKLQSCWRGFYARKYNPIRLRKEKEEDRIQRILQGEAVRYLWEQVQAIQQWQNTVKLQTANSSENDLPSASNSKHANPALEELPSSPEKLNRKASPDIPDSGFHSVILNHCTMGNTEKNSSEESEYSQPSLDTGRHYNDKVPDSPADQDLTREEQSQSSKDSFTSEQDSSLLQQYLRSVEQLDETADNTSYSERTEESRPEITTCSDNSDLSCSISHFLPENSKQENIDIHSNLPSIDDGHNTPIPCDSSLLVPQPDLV

Assay [4] deals with T4, X. laevis CEP97 Δ516–540 (X. laevis) (UniProt Q6GPJ8).
T4 sequence: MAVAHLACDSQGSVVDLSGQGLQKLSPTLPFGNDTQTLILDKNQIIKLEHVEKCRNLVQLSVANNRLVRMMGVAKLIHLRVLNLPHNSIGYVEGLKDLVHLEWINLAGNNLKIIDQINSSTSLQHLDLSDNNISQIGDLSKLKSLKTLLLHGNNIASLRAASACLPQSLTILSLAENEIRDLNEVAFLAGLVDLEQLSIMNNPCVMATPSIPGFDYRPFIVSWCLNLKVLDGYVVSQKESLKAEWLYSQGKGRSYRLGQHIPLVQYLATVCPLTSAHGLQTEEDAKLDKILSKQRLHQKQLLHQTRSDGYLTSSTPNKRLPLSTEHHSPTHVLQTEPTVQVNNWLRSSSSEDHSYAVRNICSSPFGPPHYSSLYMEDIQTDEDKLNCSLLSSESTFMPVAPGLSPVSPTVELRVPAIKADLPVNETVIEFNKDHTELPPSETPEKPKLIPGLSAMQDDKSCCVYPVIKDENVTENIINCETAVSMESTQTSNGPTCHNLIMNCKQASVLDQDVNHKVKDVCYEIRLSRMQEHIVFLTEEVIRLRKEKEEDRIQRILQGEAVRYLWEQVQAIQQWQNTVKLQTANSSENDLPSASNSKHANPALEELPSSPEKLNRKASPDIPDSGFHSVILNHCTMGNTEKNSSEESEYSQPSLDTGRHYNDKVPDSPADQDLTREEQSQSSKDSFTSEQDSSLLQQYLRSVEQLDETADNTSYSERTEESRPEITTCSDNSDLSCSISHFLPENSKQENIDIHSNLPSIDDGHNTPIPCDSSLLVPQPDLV

As to “X. laevis Plk1 WT, exogenous, tag not named for the experiment (from UniProt P70032 1-598) (enzyme)”, the binding result is given as “binds” in assay [1], “binds” in assay [2] and “no binding” in assay [3].
Consider “X. laevis Dyrk1a WT, exogenous, tag not named for the experiment (from UniProt Q2TAE3 1-750) (enzyme)”, for which the binding entry in assay [1] and in assay [4] was “binds” each time.
